PubChem BioAssay AID624296 (National Center for Advancing Translational Sciences (NCATS), 2012)
About 9,900 (2.8%) of roughly 350,000 compounds were called active. Inconclusive means that the source gave no clear call. Such entries were picked first, then a sample of the others. The call rests on the fitted dose curve; in most records, active means well fitted activation curve with a large enough effect; inconclusive means small, poorly fitted or top-dose-only effect; inactive means no such curve, though single readings can be large or run the other way. Potencies of inconclusive entries are left out as doubtful fits.

Experiment: A quantitative high throughput screen for small molecules that induce DNA re-replication in MCF 10a normal breast cells. Further: nearly all actives have a fitted effect of over 50% in size.
Conditions: MCF 10A DNA re-replication, Hoechst nuclear intensity, 48 h; series mostly up to 46.1 µM
Potency means the concentration at half of the fitted maximal effect; tags describe the fitted curve by direction and shape.

| SMILES | Potency |
| --- | --- |
| C[C@H]1CN([C@@H](C)CO)C(=O)Cc2cc(NC(=O)CCC(F)(F)F)ccc2O[C@H]1CN(C)Cc1ccc(C(F)(F)F)cc1 | inconclusive [activator, partial curve] |
| COc1cccc2nc3cc(C)c(C)cc3nc12 | inactive |
| CCOC(=O)C1=C(C)c2ccccc2N(C(=O)OC)C1(C)C(=O)OCC (stereo not given) | inconclusive [activator, partial curve, poor fit] |
| OC(CSc1c(Cl)cccc1Cl)CN1CCN(c2ccc(F)cc2)CC1 (stereo not given) | inconclusive [activator, single point] |
| COc1ccc(-c2nnc(SCC(=O)N3CCc4ccccc4C3)o2)cc1 | inconclusive [activator, single point] |
| CCN(CC)S(=O)(=O)c1ccc(NCCCn2ccnc2)c([N+](=O)[O-])c1 | inactive |
| COc1ccccc1/C=C\C=N\NC(=O)c1ccco1 | inconclusive [activator, single point] |
| Cc1cc(C)c2nc(-c3ccccn3)cc(C(=O)NCCc3ccc(S(N)(=O)=O)cc3)c2c1 | inconclusive [activator, single point] |
| CCNC(=S)N/N=C/c1ccc(OCCOc2ccccc2C)cc1 | inconclusive [activator, full curve, poor fit] |
| O=C(O)c1ccc(N/N=C/C=C/c2ccccc2)cc1 | active: 14.6 µM |
| Cc1cc(=O)c2c(O)c3c(O)cc(=O)c4c3c3c(cc(O)c1c23)C(C)(C)C=4O | inconclusive [activator, full curve] |
| N/C(=N\OC(=O)c1ccccc1)C(Cc1ccccc1)C(=O)NOC(=O)c1ccccc1 (stereo not given) | inconclusive [activator, single point] |
| Cc1sc(N/N=C/c2cccnc2)nc1-c1ccccc1 | inconclusive [activator, single point] |
| CC(C)(C)c1ccc(-c2cn(-c3ccc(Br)cc3)c3[n+]2CCCS3)cc1 | inconclusive [activator, single point] |
| CC1COc2ccccc2N1S(=O)(=O)c1cc(Cl)ccc1Cl (stereo not given) | inconclusive [activator, single point] |
| CC(=O)N1CCN(c2ccc(NC(=O)c3ccc(C)c([N+](=O)[O-])c3)cc2)CC1 | inconclusive [activator, partial curve, poor fit] |
| Cc1ccc(OCC(=O)Nc2sc3c(c2C#N)CCC3)cc1C | inconclusive [activator, partial curve, poor fit] |
| COc1ccc(C2(c3ccc(OC)cc3)NC(=O)N(CC(=O)N(C)c3ccccc3)C2=O)cc1 | inactive |
| CC1C(=O)N2CCCc3cc(NC(=O)C(=O)NCCc4c[nH]c5ccccc45)cc1c32 (stereo not given) | inconclusive [activator, single point] |
| O=C(C[C@H]1C/C=C\CCCC(=O)OC[C@H]2CCCN2C1=O)NCCO | inconclusive [activator, single point] |
| Cc1occc1-c1nnc(SCC(=O)NC2CCCCC2C)o1 (stereo not given) | inactive |
| CCOc1ccc(C(=O)/C=C/c2ccccc2C(F)(F)F)cc1 | inactive |
| CCN(c1ccccc1)S(=O)(=O)c1ccc(Cl)c(NC(=O)COC(=O)C2CC2C)c1 (stereo not given) | inactive |
| COc1ccc(S(=O)(=O)CC(=O)c2cc3cccc(C)c3oc2=O)cc1 | inconclusive [activator, partial curve, poor fit] |

| SMILES | Potency |
| --- | --- |
| NC(=O)[C@@H]1CCCN1Cc1c(C(=O)N2CCc3ccccc3C2)nc2ccc(Cl)cn12 | inactive |
| Oc1c(Cl)cc(Cl)cc1C1=NNC(c2ccc(Cl)cc2)C1 (stereo not given) | active: 16.4 µM |
| COc1nc(Nc2ccccc2)nc(OC)n1 | inconclusive [activator, single point] |
| CCOc1ccc(CN(C)CC(=O)Nc2cccc(C)c2)cc1OC | inconclusive [activator, single point] |
| CC(C)(C)C(=O)/C=c1\[nH]c(=O)/c(=C\c2ccccc2F)s1 | inactive |
| Cc1noc(C)c1CSCC(=O)N(C)CC(=O)Nc1ccc(Cl)cc1 | inactive |
| CC(/C=C/c1ccccc1)=N/NC(=O)CNC(=O)c1ccccc1F | inconclusive [activator, single point] |
| COc1ccc(C(=O)Nc2ccccc2-c2nnn(CC(N)=O)n2)cc1 | inconclusive [activator, single point] |
| CCOC(=O)CC(=O)NC(CC(=O)OC)c1ccc(C(C)C)cc1 (stereo not given) | inconclusive [activator, single point] |
| O=C(c1ccc2nc(Cc3cccc(Cl)c3)oc2c1)N1CCC(O)CC1 | inactive |
| O=C(Nc1ccccc1-c1ccccc1)C1CCCC1 | active: 13 µM |
| Cc1cccc(-n2[nH]c3c4c(ccc3c2=O)C(=O)c2ccccc2C4=O)c1 | inconclusive [activator, full curve, poor fit] |
| NCCCCCc1nnc(SCC(=O)Nc2cccc(Cl)c2)o1 | inconclusive [activator, single point] |
| CCOc1cc(NS(=O)(=O)c2ccc(Cl)cc2)c(OCC)cc1NC(=O)CC(C)C | inactive |
| CC1(C)CC(=O)C=C(NC2CCCCCC2)C1 | inconclusive [activator, single point] |
| CCCNC(=O)NC(=O)COc1ccc2oc3ccccc3c2c1 | inconclusive [activator, full curve, poor fit] |
| O=C(COC(=O)C1CC2CCCC(C1)C2=O)NNC(=O)c1ccccc1Br (stereo not given) | inactive |
| Cc1ccc(NC(=O)C(OC(=O)c2ccc(F)cc2)c2ccccc2)cc1Cl (stereo not given) | inactive |
| Nc1ccc(-c2nc3ccc(C(=O)O)cc3s2)cc1 | inconclusive [activator, partial curve, poor fit] |
| Cc1cccc2sc(N(CCCN(C)C)C(=O)c3ccc(S(=O)(=O)N4CCc5ccccc5C4)cc3)nc12 | inconclusive [activator, single point] |
| CCOC(=O)c1c(NC(=O)CN2C(=O)NC3(CCCCC3C)C2=O)sc(C)c1CC (stereo not given) | inconclusive [activator, single point] |
| Fc1ccc2cc(CCO[C@H]3CCCCO3)ncc2c1 | inconclusive [activator, single point] |
| CC(C)c1c(C(=O)Nc2ccccc2)c(-c2ccccc2)c(-c2ccc(F)cc2)n1CC[C@@H](O)C[C@@H](O)CC(=O)O | inactive |
| COC(=O)c1ccc(N2CCC(C)CC2)c(N)c1 | active: 20.6 µM |

| SMILES | Potency |
| --- | --- |
| Cc1ccc(C)c(S(=O)(=O)N2C(=S)NC(=O)C2C(C)C)c1 (stereo not given) | inconclusive [activator, partial curve, poor fit] |
| Cc1cc(Cl)c2oc(C(=O)N(CCO)Cc3ccccc3)c(C)c2c1 | inactive |
| O=C(Cn1c(C(F)(F)F)nc2ccccc21)N=Nc1c(O)[nH]c2ccc(Br)cc12 | inactive |
| O=C1CN(CC(=O)N2CCCCC2)c2ccccc2O1 | inconclusive [activator, partial curve, poor fit] |
| Cc1ccc(NC(=O)c2cc3c(s2)CCCC3)cc1 | inactive |
| CC(=O)Nc1ccc(OS(=O)(=O)c2c(C)cc(C)cc2C)cc1 | inactive |
| O=C(Nc1ccc(Oc2ccccc2)cc1)C1CCCO1 (stereo not given) | active: 7.31 µM |
| COc1ccc(S(=O)(=O)Nc2ccccc2C(=O)Nc2nc(-c3ccc(F)cc3)cs2)cc1OC | inconclusive [activator, partial curve] |
| O=C(Cc1csc(N2CCOCC2)n1)N/N=C/c1ccccc1C(=O)O | inactive |
| Cc1cc(-c2nc3ncccc3o2)ccc1NC(=S)NC(=O)C(C)C | inconclusive [activator, partial curve, poor fit] |
| COc1ccccc1C(=O)Nc1nnc(CCc2ccccc2)s1 | inconclusive [activator, partial curve, poor fit] |
| CC1(C(=O)O)CCC(C(=O)Nc2ccc(F)cc2)C1(C)C (stereo not given) | inactive |
| Cc1ccc(Cl)cc1N1CCN(S(=O)(=O)c2ccc3[nH]c(=O)c(=O)[nH]c3c2)CC1 | inactive |
| CC(=O)Nc1ccc(OCCOc2ccc([N+](=O)[O-])cc2)cc1 | inconclusive [activator, partial curve, poor fit] |
| O=C(Nc1ccc2c(c1)OCCO2)c1cc(-c2ccccc2)nc2ccccc12 | inactive |
| N#Cc1c(Nc2ccccc2Cl)s[nH]c1=O | inconclusive [activator, single point] |
| Cc1cc(NS(=O)(=O)c2ccc(NC(=S)NC(=O)c3ccc(Br)cc3)cc2)no1 | inactive |
| N#CCCN(CCC#N)S(=O)(=O)c1ccc(C(=O)Nc2nc(-c3ccccc3)c(C(=O)c3ccccc3)s2)cc1 | inconclusive [activator, partial curve, poor fit] |
| COc1ccc(-c2csc(NC(=O)CN3C(=O)NC4(CCCC4)C3=O)n2)cc1OC | inactive |
| CCOC(=O)c1c(-c2ccc(C)o2)csc1NC(=S)NC(=O)c1ccccc1Br | inconclusive [activator, partial curve, poor fit] |
| COc1ccccc1CN(C)C(=O)c1cc(-c2cc(OC)c(OC)c(OC)c2)nc2ccccc12 | inconclusive [activator, partial curve] |
| Nc1nc(Cl)cc(Oc2ccccc2F)n1 | inconclusive [activator, full curve, poor fit] |
